Test results published in the supplement of paper PMC10126150.
Sequences with one replicate were seen in a single cluster, so their values are uncertain.

Tested on: ATP
Experiment: switch fluorescence ratio, 500 uM ATP over buffer (Cy3 cluster intensity, sum of 5 cycles each) (fold (ratio)); higher = stronger signal-on switching upon ATP binding; sequences stand for … in TCGTCGGCAGCGTCAGATGTGTATAAGAGACAGTTTTTTTTTTTTTTTTTTTTTTTTT…TC
Details: aptamer strand: ATP DNA aptamer (quencher-CACCTGGGGGAGTATTGCGGAGGAAGG + anchor), 100 nM annealed; ATP concentration: 500 uM; one replicate
Method in brief: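 Per cluster, summed Cy3 intensity from the target cycles was divided by that from the buffer cycles to give the fluorescence ratio, then averaged per switch-domain sequence. Clusters outside 100-1000 RFU were excluded. The Cy3-labelled switching-strand clusters, on a modified Illumina MiSeq flow-cell, were annealed to 100 nM quencher-labelled ATP aptamer and imaged in selection buffer, then after 15 min with 500 uM ATP at 22 °C, for five cycles with NaOH stripping and re-annealing between them.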
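Also: ATP exposure 15 min at 22 °C before imaging.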

Row | Sequence | switch fluorescence ratio
1 | CTCTGTTATA | 1.25
2 | GGGAGTCTGC | 0.952
3 | AGTGGGCTGC | 0.946
4 | ATATATTTGG | 0.968
5 | TAGACCTGGT | 1.02
6 | TTGGGATGAA | 0.959
7 | CCTATCCTAA | 0.981
8 | AGGCCCCAAG | 1.06
9 | GGCCCACCTT | 1.07
10 | ACTTTTAATT | 1.03
11 | TTCAGTTAC | 1.06
12 | GCAATAAAAG | 0.985
13 | CCCCTTTCTC | 1.35
14 | GTTTTCGATT | 0.965
15 | TAGAGTGCGT | 1.01
16 | GAACAACATC | 1.02
17 | TAATCGTTGA | 0.968
18 | GTTTCTAGGA | 0.992
19 | AATGCGCATG | 0.988
20 | CGATTGGCAT | 1.13
21 | GAATGTCGAT | 0.962
22 | CAGTGTCT | 1.03
23 | GCTTTAACTA | 0.998
24 | CATCTGGGAG | 1
25 | GACCTCTTAA | 0.986

Row | Sequence | switch fluorescence ratio
26 | ATCCGCCTGT | 1.23
27 | ATCAGGGATT | 0.996
28 | TCCGAATGGC | 1.58
29 | AAAGATTAGA | 0.937
30 | CATCTCGAGG | 0.996
31 | CTAATTGACA | 1
32 | AAACCATAGC | 1.06
33 | ATGACTAAAG | 0.975
34 | GTTATGGCTA | 0.995
35 | ACAACGGTCC | 1.1
36 | CAAGGGGAAC | 0.983
37 | CTAAAAAATG | 1.04
38 | CGAAGGACTC | 1.17
39 | ATTTGGGA | 1.02
40 | TTAGGTATG | 1
41 | TGGCTAATTG | 0.986
42 | CCGGAAGTTG | 1.02
43 | GGAATAGCGC | 0.961
44 | ACACGCCGCA | 1.15
45 | AAAAATGAGT | 1
46 | GTTAGCCCCA | 0.994
47 | ACAACATTTT | 1.04
48 | GGGGGTTA | 1.04
49 | ATAGCAACG | 1.05
50 | GATCGGCGGG | 1.02

Row | Sequence | switch fluorescence ratio
51 | CGGAGTCGTT | 0.997
52 | CTATTAGTGC | 1.02
53 | CGGTACCCTG | 1.02
54 | CGGTTGCTCT | 1.05
55 | TAGATGGGAA | 1.01
56 | CATTTGCTTC | 1.08
57 | GAAGAGTCTA | 1.04
58 | AGTCCTCTTT | 0.975
59 | TCATGTATCG | 1.03
60 | ACGAATCTAG | 1.02
61 | AGAGTCCAGT | 0.992
62 | GTTATTCCTT | 1.05
63 | AATTGTGCTA | 1.01
64 | GTACGACAGG | 1.06
65 | CCACTTATTT | 1.04
66 | GGTTTTGGTC | 1.01
67 | GTTATATAAA | 0.979
68 | CGAGCTAAGG | 1.08
69 | TTAATAGCAA | 1
70 | TAAGAAAGT | 0.932
71 | AGTGATGTA | 0.969
72 | AGAGGGGCAC | 0.932
73 | TAACTAGTGT | 0.994
74 | GTGATGGTGT | 0.962
75 | ACGGATTAGC | 1.04

Row | Sequence | switch fluorescence ratio
76 | CCCAGCAAAT | 3.8
77 | TTGTGGATTC | 0.997
78 | AACTATGTAT | 1
79 | GCGGATGGAC | 1.02
80 | GTGCGGTCCT | 0.984
81 | ACTTCGGGGA | 0.985
82 | TTCCGAGTCC | 1.05
83 | AAGTGTTTGT | 1.01
84 | CTTCTTCATC | 1.05
85 | ATGGGTACGA | 1
86 | CTAATATTTA | 1.01
87 | GGGTGAGAAG | 0.964
88 | TGGTGATATA | 1.01
89 | CTGGATCTTT | 0.944
90 | GGTCCCGTCA | 0.954
91 | GCTCTACCAT | 1.01
92 | TATCTGGTT | 0.96
93 | AAATTACTCC | 1.28
94 | AAGGGTTCAG | 0.979
95 | GTGTAGAGCT | 1.04
96 | TGATACTAAC | 1.2
97 | TTGAGCCCGG | 1.05
98 | CTGAAAGTCG | 0.983
99 | CTGGGGATAA | 1
100 | GGTGCTTGGA | 0.997

Row | Sequence | switch fluorescence ratio
101 | TAAAAACGCA | 1.09
102 | TCATAGTGGA | 0.99
103 | ACAGGTCTAA | 1.05
104 | GTTGAAGCAA | 1.82
105 | GGTAAGAGCA | 1.02
106 | CGTGCGGCGG | 0.982
107 | TTAGTTGCCC | 0.944
108 | TAGTGCTAAA | 1.01
109 | GCTCCCGGCC | 1.06
110 | ATAGAGTG | 1.02
111 | TATGCGGGAG | 0.995
112 | TTTATTAGGT | 1.02
113 | ACTTGCCGGA | 1.01
114 | GACATGCGTA | 1.04
115 | GGAACTGAAT | 0.996
116 | TTGATAGTG | 0.987
117 | CAGTATGTGC | 1
118 | GATAATCTAA | 0.968
119 | TGGTGGTGCG | 0.986
120 | CCTTAGTATA | 1.1
121 | GTCGGATCTA | 0.998
122 | AGATCAGCAG | 1.04
123 | GAGGCCACGC | 0.975
124 | TCCTAGGAAG | 0.962
125 | TGATTTGGA | 1.03

Row | Sequence | switch fluorescence ratio
126 | ACATTCGATA | 0.986
127 | TCAGCAAATC | 3.02
128 | TACTATTGAC | 1.03
129 | ACGGATATCC | 0.977
130 | TAGCGTGTCG | 0.969
131 | CGGTCGTCAC | 1.03
132 | TGGGATAATT | 0.967
133 | CACGAAGAGT | 1.11
134 | TCTGGTTCCA | 1.01
135 | TAAATATTTG | 1.02
136 | TATGGCAGT | 1.01
137 | TTACTCCATT | 1.27
138 | ACTGTGTACG | 1.05
139 | CGATTAGGCT | 0.988
140 | CCCAGCGGGT | 1.01
141 | TATCCCAAGT | 0.992
142 | CGCTATAAAG | 1.04
143 | CAGTTTCGCG | 1
144 | GCAGGAGGCA | 0.991
145 | AGTCGGCCGC | 0.924
146 | CAAGAAGTTT | 1.01
147 | GTCGAGGGTG | 1.01
148 | GGAATAAGTA | 1.02
149 | TTGTCCGGAA | 1.52
150 | CACATGGGAT | 1.01

Row | Sequence | switch fluorescence ratio
151 | TTTCCGCTTT | 2.23
152 | AGTCCCCAAG | 3.68
153 | AGGACAAACA | 1.13
154 | AATTCAGCGC | 0.975
155 | GTCGGGCTGA | 1
156 | TGTGGGTTAG | 1
157 | AAAATTTGTA | 0.975
158 | AACCTTAGGG | 1.02
159 | GCCGATCCGC | 1.72
160 | TCCGCATAGG | 3.85
161 | TGCCTTGAAT | 0.996
162 | CGTCCATTA | 1
163 | AGTAAGATTC | 1.02
164 | GCCCCGGAAG | 1.14
165 | AAGGAGCGCC | 0.98
166 | ATAGAACGTG | 1.01
167 | ACAAGTACTG | 1.27
168 | CGTGTTGGTG | 1.04
169 | TCAAGTTATG | 1.02
170 | CCGGGCCGGG | 0.958
171 | TTCGACGGGC | 1.25
172 | GAAATGTCGT | 1.04
173 | ACAAAGTCGG | 1
174 | GCAGTGGTGC | 1.02
175 | CTAAATCTAG | 0.982

Row | Sequence | switch fluorescence ratio
176 | CGGGGTAATT | 1.18
177 | CACAATAGCT | 1.03
178 | ATCAGAGGT | 1.03
179 | TGATCTGTTA | 1.04
180 | GCTCCGTCTG | 1.41
181 | GAAGGCCAGG | 1.13
182 | AGGGTGACGA | 1.01
183 | TTGAGGGAAC | 1.02
184 | AGGTGAGTAC | 0.99
185 | TACTTGGTGG | 1.04
186 | TTCCTACACA | 1.49
187 | TGACAACTTT | 0.979
188 | GCGTTAACCA | 0.977
189 | GTACAGCCGA | 1.02
190 | AACGGTAACA | 1.1
191 | TCCGGCGTGG | 1.03
192 | CATGACCGCT | 0.985
193 | GTAGGGATGC | 1.3
194 | TTAATACCTA | 1.04
195 | CTGGTGGAAA | 0.964
196 | GGCTATTCGT | 0.971
197 | GCGCAAGACG | 2.31
198 | CTCTGTTAAT | 1.2
199 | CGCCGGGTTA | 0.985
200 | TACTTATTGA | 0.986
